Laboratory results reported in the antibiotic and cytotoxicity screens of Wong et al. (2023).
The other results are listed elsewhere or left out.

How the values were obtained:
HSkMC = human skeletal muscle cells; experiment: cytotoxicity call (relative viability < 0.9); conditions: 10 µM
HepG2 = experiment: cytotoxicity call (relative viability < 0.9); conditions: 10 µM
S. aureus RN4220 = experiment: growth inhibition call (relative growth <= 0.2); conditions: 50 µM

| Compound | cytotoxicity call (HSkMC) | cytotoxicity call (HepG2) | growth inhibition call (S. aureus RN4220) |
| --- | --- | --- | --- |
| COc1ccc(S(=O)(=O)N(C)C[C@H]2Oc3ccc(NS(C)(=O)=O)cc3CC(=O)N([C@@H](C)CO)C[C@H]2C)cc1 | inactive | inactive | inactive |
| O=C(C[C@H]1C[C@H]2c3cc(NS(=O)(=O)c4ccc(F)cc4)ccc3O[C@H]2[C@@H](CO)O1)NC1CCCC1 | inactive | inactive | inactive |
| C=C/C=C/[C@H]1C(=C)CN([C@H](Cc2ccc(-n3cc(CCC(=O)NO)nn3)cc2)C(=O)OC)[C@@H]1[C@H](O)Cc1ccccc1 | inactive | inactive | inactive |
| CCOC(=O)CCCCCC(=O)Nc1ccc2c(c1)C(=O)N([C@@H](C)CO)C[C@@H](C)[C@H](CN(C)C(=O)c1ccncc1)OCCCC[C@H](C)O2 | inactive | inactive | inactive |
| C[C@@H]1CN([C@@H](C)CO)C(=O)c2cccc(NS(=O)(=O)c3cccs3)c2O[C@@H]1CN(C)Cc1ccncc1 | inactive | inactive | inactive |
| COc1ccc(S(=O)(=O)Nc2ccc3c(c2)C(=O)N([C@H](C)CO)C[C@H](C)[C@H](CN(C)S(=O)(=O)c2ccc(F)cc2)O3)cc1 | inactive | inactive | inactive |
| COc1cc2c(cc1OC)C1Cc3ccc(OC)c(OC)c3CN1CC2 (configuration not stated) | inactive | inactive | inactive |
| C[C@H]1CN([C@@H](C)CO)C(=O)c2cccc(NC(=O)Nc3ccc4c(c3)OCO4)c2O[C@@H]1CN(C)Cc1ccc(C(F)(F)F)cc1 | inactive | inactive | inactive |
| C[C@@H]1CN([C@@H](C)CO)C(=O)c2cc(NC(=O)C3CCCCC3)ccc2O[C@@H](C)CCCCO[C@@H]1CN(C)C(=O)Nc1ccc(F)cc1 | inactive | inactive | inactive |
| Nc1cc(-c2ccccc2)ccc1O | inactive | inactive | inactive |
| C/C=C/C(=O)N1CCC=CC1=O | inactive | inactive | inactive |
| Cc1noc(C)c1S(=O)(=O)Nc1ccc2c(c1)C(=O)N([C@H](C)CO)C[C@H](C)[C@@H](CN(C)C(=O)NC1CCCCC1)O2 | inactive | inactive | inactive |
| C[C@H]1CN([C@@H](C)CO)C(=O)c2c(c3ccccc3n2C)-c2ccccc2CO[C@@H]1CN(C)Cc1cccc(C(F)(F)F)c1 | active | inactive | inactive |
| C[C@H](CO)N1C[C@H](C)[C@@H](CN(C)C(=O)c2cnccn2)Oc2cc(C#CCC3CCCC3)ccc2S1(=O)=O | inactive | active | inactive |
| COc1cccc(NC(=O)N2C[C@@H](O)COC[C@@H]3O[C@@H](CC(=O)NCc4ccccc4F)CC[C@H]32)c1 | inactive | inactive | inactive |
| C[C@@H]1CN([C@@H](C)CO)C(=O)Cc2cc(NC(=O)CCN3CCOCC3)ccc2O[C@@H]1CN(C)S(C)(=O)=O | inactive | inactive | inactive |
| C[C@@H]1CN([C@@H](C)CO)C(=O)Cc2cc(NC(=O)CCC(F)(F)F)ccc2O[C@H]1CN(C)S(=O)(=O)c1cccs1 | inactive | inactive | inactive |
| COc1ccc(CN(C)C[C@H]2OCCCC[C@H](C)Oc3ccc(NC(=O)NC(C)C)cc3C(=O)N([C@@H](C)CO)C[C@@H]2C)cc1 | inactive | inactive | inactive |
| CN1CCN(C(=O)C[C@H]2CC[C@@H]3[C@H](COC[C@H](O)CN3S(=O)(=O)c3cccc(F)c3)O2)CC1 | inactive | inactive | inactive |
| C[C@H]1CCCCO[C@H](CN(C)Cc2ccccc2)[C@@H](C)CN([C@@H](C)CO)C(=O)c2cc(NC(=O)NC3CCCCC3)ccc2O1 | inactive | active | inactive |
| C[C@@H]1CCCCO[C@@H](CN(C)C(=O)CCC(F)(F)F)[C@@H](C)CN([C@@H](C)CO)C(=O)c2cc(NC(=O)c3ccccc3)ccc2O1 | inactive | inactive | inactive |
| CCN(CC)C(=O)[C@@H]1C[C@@H](N)CN1S(=O)(=O)N1CCCCCC1 | inactive | inactive | inactive |
| O=P(O)(O)C(O)(Cn1ccnc1)P(=O)(O)O | inactive | inactive | inactive |
| Cc1noc(C)c1NC(=O)Nc1ccc2c(c1)C(=O)N([C@@H](C)CO)C[C@H](C)[C@@H](CN(C)S(C)(=O)=O)O2 | inactive | inactive | inactive |
| C[C@@H]1CCCCO[C@H](CN(C)C(=O)c2ccccc2)[C@@H](C)CN([C@H](C)CO)C(=O)c2cc(NC(=O)Nc3ccc(F)cc3)ccc2O1 | inactive | inactive | inactive |
| C[C@@H]1CN([C@@H](C)CO)C(=O)c2cc(NC(=O)Nc3ccc(C(F)(F)F)cc3)ccc2O[C@@H](C)CCCCO[C@@H]1CN(C)Cc1ccccc1 | inactive | active | inactive |
| C[C@H]1CN([C@@H](C)CO)C(=O)Cc2cc(NC(=O)C3CC3)ccc2O[C@H]1CN(C)Cc1ccc2c(c1)OCO2 | inactive | inactive | inactive |

| Compound | cytotoxicity call (HSkMC) | cytotoxicity call (HepG2) | growth inhibition call (S. aureus RN4220) |
| --- | --- | --- | --- |
| Cc1ccc(S(=O)(=O)Nc2ccc3c(c2)C(=O)N([C@@H](C)CO)C[C@H](C)[C@H](CN(C)C(=O)NC2CCCCC2)OCCCC[C@@H](C)O3)cc1 | inactive | inactive | inactive |
| CS(C)(=O)=O | inactive | active | inactive |
| C[C@@H]1CN([C@H](C)CO)C(=O)c2cc(NC(=O)Nc3ccc4c(c3)OCO4)ccc2O[C@@H](C)CCCCO[C@@H]1CN(C)Cc1ccc(C(F)(F)F)cc1 | inactive | inactive | inactive |
| COc1ccc(NC(=O)Nc2cccc3c2O[C@H](CN(C)C(=O)Nc2ccc(C(F)(F)F)cc2)[C@H](C)CN([C@H](C)CO)C3=O)cc1 | inactive | inactive | inactive |
| C[C@H](CO)N1C[C@H](C)[C@@H](CN(C)Cc2ccc(-c3ccccc3)cc2)Oc2ccc(NS(=O)(=O)c3cccs3)cc2CC1=O | inactive | inactive | inactive |
| Cc1noc(C)c1NC(=O)N(C)C[C@H]1Oc2c(NC(=O)C3CCOCC3)cccc2C(=O)N([C@H](C)CO)C[C@H]1C | inactive | inactive | inactive |
| C[C@H](CO)N1C[C@H](C)[C@@H](CN(C)Cc2ccc(F)cc2)Oc2cc(Br)ccc2S1(=O)=O | inactive | inactive | inactive |
| COc1ccc(S(=O)(=O)N(C)C[C@@H]2Oc3ccc(NS(=O)(=O)c4ccc(C)cc4)cc3C(=O)N([C@H](C)CO)C[C@@H]2C)cc1 | inactive | inactive | inactive |
| C[C@H]1CN([C@@H](C)CO)C(=O)c2cc(NC(=O)Nc3ccc4c(c3)OCO4)ccc2O[C@@H]1CN(C)C(=O)Nc1ccc(C(F)(F)F)cc1 | inactive | inactive | inactive |
| COc1cccc(CN2C[C@@H](C)[C@H](OC)CN(C)C(=O)c3ccc(NS(=O)(=O)c4cn(C)cn4)cc3OC[C@H]2C)c1 | inactive | inactive | inactive |
| C[C@H](CO)N1C[C@H](C)[C@H](CN(C)C(=O)Cc2ccccc2)OCCCC[C@H](C)Oc2ccc(NC(=O)Nc3cccc4ccccc34)cc2C1=O | inactive | inactive | inactive |
| C[C@H]1CN([C@@H](C)CO)C(=O)c2cc(NC(=O)Nc3ccc(C(F)(F)F)cc3)ccc2O[C@H]1CN(C)C(=O)Nc1ccc(C(F)(F)F)cc1 | inactive | inactive | inactive |
| O=C(O)CCc1nnc2ccc(Cl)nn12 | inactive | inactive | inactive |
| C[C@H](CO)N1C[C@H](C)[C@H](CN(C)C(=O)Nc2ccc(F)cc2)Oc2c(NC(=O)Nc3cccc4ccccc34)cccc2C1=O | inactive | active | inactive |
| COc1ccc(S(=O)(=O)N(C)C[C@H]2Oc3ccc(NS(=O)(=O)c4cccs4)cc3C(=O)N([C@@H](C)CO)C[C@@H]2C)cc1 | inactive | inactive | inactive |
| C[C@H]1CN([C@@H](C)CO)C(=O)c2cc(NC(=O)Cn3cnnn3)ccc2O[C@@H]1CN(C)CC1CCCCC1 | inactive | inactive | inactive |
| Cc1ccc(S(=O)(=O)Nc2ccc3c(c2)C(=O)N([C@@H](C)CO)C[C@@H](C)[C@@H](CN(C)Cc2ccc(C(=O)O)cc2)OCCCC[C@H](C)O3)cc1 | inactive | inactive | inactive |
| CC(=O)C1(O)CCC2C3C=C(Cl)C4=CC(=O)C5CC5C4(C)C3CCC21C (configuration not stated) | inactive | inactive | inactive |
| Cc1ccc(S(=O)(=O)Nc2ccc3c(c2)C(=O)N([C@@H](C)CO)C[C@H](C)[C@@H](CN(C)Cc2ccc(Cl)c(Cl)c2)OCCCC[C@@H](C)O3)cc1 | active | active | inactive |
| Cc1ccc(S(=O)(=O)N(C)C[C@@H]2OCCCC[C@@H](C)Oc3ccc(NC(=O)Nc4cccc5ccccc45)cc3C(=O)N([C@@H](C)CO)C[C@H]2C)cc1 | inactive | inactive | inactive |
| C[C@@H]1CCCCO[C@H](CN(C)C(=O)Nc2cccc3ccccc23)[C@@H](C)CN([C@@H](C)CO)C(=O)c2cc(NS(C)(=O)=O)ccc2O1 | inactive | inactive | inactive |
| C[C@@H]1CN([C@H](C)CO)C(=O)c2cc(NC(=O)Nc3ccc(C(F)(F)F)cc3)ccc2O[C@@H](C)CCCCO[C@H]1CN(C)C(=O)c1ccccc1 | active | inactive | inactive |
| CCCNC(=O)Nc1ccc2c(c1)OC[C@@H](C)N(C(=O)C1CCOCC1)C[C@H](C)[C@H](OC)CN(C)C2=O | inactive | inactive | inactive |
| C[C@@H]1CN([C@H](C)CO)C(=O)c2cc(C#CCc3ccccc3)cnc2O[C@@H]1CN(C)C(=O)Cc1cccnc1 | inactive | inactive | inactive |
| C[C@H](CO)N1C[C@H](C)[C@@H](CN(C)C(=O)Nc2ccccc2)Oc2ccc(NC(=O)CCN3CCOCC3)cc2CC1=O | inactive | inactive | inactive |
| O=C1O[C@H](c2ccccc2)[C@H](c2ccccc2)N2[C@H]1[C@@H](C(=O)Nc1nc3ccccc3s1)[C@]1(C(=O)Nc3ccc(C#CCCO)cc31)[C@H]2c1ccc(O)cc1 | inactive | inactive | inactive |
| COCCOC(=O)N1C(=O)[C@@]2(c3cc(C#CCC(C(=O)OC)C(=O)OC)ccc31)[C@H](C(=O)N1CCc3cc(OC)c(OC)cc3C1)[C@H]1C(=O)O[C@H](c3ccccc3)[C@H](c3ccccc3)N1[C@@H]2c1ccccc1OCCO | inactive | inactive | inactive |
